Results as given in ChEMBL document CHEMBL5052851, “Mettl3 modulators” (2021).

Assays:
MOLM-13 = test: Antiproliferative activity against human MOLM-13 cells after 96 hrs by Cell Titer-Glo assay; type: functional, cell-based; details: MOLM-13, 96 h
[1] = Inhibition of METTL16 (unknown origin) using CGAUACAGAGAAGAUUAGCAUACGCAAAUUCGUGAAGCG-biotin and SAM as substrates preincubated for 5 mins followed by substrate addition incubated for 220 mins by TopCount scintillation counting method; set-up: species or system Homo sapiens
[2] = biological target: T1, N6-adenosine-methyltransferase catalytic subunit (Homo sapiens, UniProt Q86U44); test: Inhibition of METTL3 (unknown origin) using UCUGGACUAAA-biotin and 3H-SAM as substrates preincubated for 5 mins followed by substrate addition incubated for 30 mins by TopCount scintillation counting method
[3] = biological target: T1, N6-adenosine-methyltransferase catalytic subunit; test: Inhibition of METTL3-mediated m6A methylation in human MOLM-13 cells assessed as reduction in mRNA level measured after 24 hrs by LC-MS/MS analysis; type: cell-based

T1 sequence (Q86U44 whole entry): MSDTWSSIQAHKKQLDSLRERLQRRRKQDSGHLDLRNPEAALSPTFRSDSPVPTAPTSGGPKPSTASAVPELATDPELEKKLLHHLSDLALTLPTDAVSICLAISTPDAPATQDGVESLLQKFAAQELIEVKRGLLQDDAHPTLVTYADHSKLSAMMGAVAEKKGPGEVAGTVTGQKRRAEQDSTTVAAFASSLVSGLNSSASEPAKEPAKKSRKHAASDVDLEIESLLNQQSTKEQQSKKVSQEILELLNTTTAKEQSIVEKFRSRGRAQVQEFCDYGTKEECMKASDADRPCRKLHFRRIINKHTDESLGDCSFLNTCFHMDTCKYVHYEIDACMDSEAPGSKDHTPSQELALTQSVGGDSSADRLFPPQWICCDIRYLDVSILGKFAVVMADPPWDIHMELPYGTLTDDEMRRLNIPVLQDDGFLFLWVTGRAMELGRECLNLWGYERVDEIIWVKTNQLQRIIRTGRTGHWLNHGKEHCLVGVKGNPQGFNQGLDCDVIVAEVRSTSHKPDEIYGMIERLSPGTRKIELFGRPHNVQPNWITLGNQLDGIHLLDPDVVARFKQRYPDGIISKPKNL

SMILES	IC50 (MOLM-13)	IC50 [1]	IC50 [2]	IC50 [3]
Nc1nc2cc(OCc3cncc(-n4ccc5c(N)ncnc54)c3)ccc2cc1Br	≥ 10 µM	≥ 1 µM	≥ 1 µM	–
CS(=O)(=O)c1cn(-c2cncc(COc3ccc4ccc(N5CCC5)nc4c3)c2)c2ncnc(N)c12	1 µM	–	–	–
Cc1nc(-c2cn(-c3cncc(COc4ccc5ccc(N6CCC6)nc5c4)c3)c3ncnc(N)c23)co1	1 µM	–	< 0.01 µM	–
Cc1cc(N)c2ccc(OCc3cncc(-n4ccc5c(N)ncnc54)c3)cc2n1	≥ 10 µM	≥ 1 µM	–	–
Cn1ccc(-c2cn(-c3cncc(COc4ccc5ccc(N6CC(O)C6)nc5c4)c3)c3ncnc(N)c23)n1	1 µM	–	< 0.01 µM	–
CCc1cc(OC)c2ccc(OCc3cncc(-n4cc([C@@H]5CCCO5)c5c(N)ncnc54)c3)cc2n1	1 µM	–	< 0.01 µM	–
CNc1ccc2ccc(OCc3cncc(-n4cc(C(C)C5CC5)c5c(N)ncnc54)c3)cc2n1 (stereo not drawn)	1 µM	≥ 1 µM	< 0.01 µM	–
CC(=O)c1cn(-c2cncc(COc3ccc4ccc(N5CCC5)nc4c3)c2)c2ncnc(N)c12	≥ 10 µM	–	< 0.01 µM	–
Cn1ccc(-c2cn(-c3cncc(CCc4ccc5ccc(N)nc5c4)c3)c3ncnc(N)c23)n1	1 µM	≥ 1 µM	< 0.01 µM	–
CCNc1ccc2ccc(OCc3cccc(-n4cc(Cl)c5c(N)ncnc54)c3)cc2n1	1 µM	≥ 1 µM	–	–
CNc1ccc2ccc(CCc3cncc(-n4cc(F)c5c(N)ncnc54)c3)cc2n1	1 µM	≥ 1 µM	< 0.01 µM	–
CNc1ccc2ccc(OCc3cncc(-n4cc(-c5ncco5)c5c(N)ncnc54)c3)cc2n1	≥ 10 µM	≥ 1 µM	< 0.01 µM	–
CNc1ccc2ccc(OCc3cncc(-n4ccc5c(N)nc(N(C)C)nc54)c3)cc2n1	–	≥ 1 µM	≥ 1 µM	–
Cn1ccc(-c2cn(-c3cncc(CCc4ccc5cc(Br)c(N)nc5c4)c3)c3ncnc(N)c23)n1	1 µM	≥ 1 µM	≥ 1 µM	–
CNc1ccc2ccc(OCc3cncc(-n4cc(Cl)c5c(N)ncnc54)n3)cc2n1	–	–	< 0.01 µM	1 µM
COCc1cn(-c2cncc(COc3ccc4ccc(N5CCC5)nc4c3)c2)c2ncnc(N)c12	1 µM	–	< 0.01 µM	–
CCc1cc(N(C)CCOC)c2ccc(CCc3cncc(-n4cc(-c5ccn(C)n5)c5c(N)ncnc54)c3)cc2n1	< 1 µM	≥ 1 µM	–	–
CCc1cc(NCCCN(C)C)c2ccc(CCc3cncc(-n4ccc5c(N)ncnc54)c3)cc2n1	≥ 10 µM	≥ 1 µM	< 0.01 µM	–

SMILES	IC50 (MOLM-13)	IC50 [1]	IC50 [2]	IC50 [3]
CNc1ccc2ccc(OCc3cc(-n4cc(Cl)c5c(N)ncnc54)ccc3OC)cc2n1	–	≥ 1 µM	≥ 1 µM	–
CC(C)c1nc(NCCN(C)C)c2ccc(OCc3cncc(-n4ccc5c(N)ncnc54)c3)cc2n1	–	–	< 0.01 µM	1 µM
CN(CCO)c1ccc2ccc(OCc3cncc(-n4cc(-c5ccn(C)n5)c5c(N)ncnc54)c3)cc2n1	< 1 µM	–	< 0.01 µM	–
CCc1cc(N2CCC(F)(F)CC2)c2ccc(OCc3cncc(-n4ccc5c(N)ncnc54)c3)cc2n1	1 µM	≥ 1 µM	< 0.01 µM	–
Cn1ccc(-c2cn(-c3cncc(COc4ccc5ccc(N6CC(F)C6)nc5c4)c3)c3ncnc(N)c23)n1	< 1 µM	–	< 0.01 µM	–
CCNc1ccc2ccc(CCc3cncc(-n4cc([C@H]5CCCO5)c5c(N)ncnc54)c3)cc2n1	1 µM	–	< 0.01 µM	–
CC(C)c1cc(N2CCC2)c2ccc(OCc3cncc(-n4ccc5c(N)ncnc54)c3)cc2n1	< 1 µM	–	< 0.01 µM	–
Nc1ccc2ccc(OCc3cccc(-n4cc(Cl)c5c(N)ncnc54)c3)cc2n1	–	≥ 1 µM	≥ 1 µM	–
C=CC(=O)N(CCC(=O)O)c1nc(N)c2ccn(-c3cncc(COc4ccc5ccc(NC)nc5c4)c3)c2n1	–	≥ 1 µM	≥ 1 µM	–
CNc1ccc2ccc(OCc3cncc(-n4cc(C5CCCO5)c5c(N)ncnc54)c3)cc2n1 (stereo not drawn)	< 1 µM	–	< 0.01 µM	–
CCc1cc(NCCOC)c2c(F)cc(CCc3cncc(-n4cc(-c5ccn(C)n5)c5c(N)ncnc54)c3)cc2n1	< 1 µM	–	< 0.01 µM	–
CCNc1ccc2ccc(OCc3cncc(-n4cc([C@@H]5CCCO5)c5c(N)ncnc54)c3)cc2n1	< 1 µM	–	< 0.01 µM	–
C=CC(=O)Nc1nc(N)c2ccn(-c3cncc(COc4ccc5ccc(NC)nc5c4)c3)c2n1	–	≥ 1 µM	≥ 1 µM	–
CCc1cc(N2CCCC2)c2ccc(OCc3cncc(-n4ccc5c(N)ncnc54)c3)cc2n1	< 1 µM	–	< 0.01 µM	–
CCc1cc(NCCCN(C)C)c2ccc(OCc3cncc(-n4cc(-c5ccn(C)n5)c5c(N)ncnc54)c3)cc2n1	< 1 µM	–	< 0.01 µM	–
CCc1cc(NCCOC)c2ncc(OCc3cncc(-n4cc([C@@H]5CCCO5)c5c(N)ncnc54)c3)cc2n1	< 1 µM	–	< 0.01 µM	–
CNc1ccc2ccc(OCc3cc(Br)cc(-n4cc(Cl)c5c(N)ncnc54)c3)cc2n1	1 µM	≥ 1 µM	–	–

More lines, now with the values ahead:

IC50 (MOLM-13)	IC50 [1]	IC50 [2]	IC50 [3]	SMILES
< 1 µM	–	< 0.01 µM	–	CCc1cc(NCCOC)c2ccc(OCc3cncc(-n4cc([C@@H]5CCCO5)c5c(N)ncnc54)c3)cc2n1
< 1 µM	–	< 0.01 µM	–	CCc1cc(NC)c2ccc(OCc3cncc(-n4cc(-c5ccn(CCOC)n5)c5c(N)ncnc54)c3)cc2n1
< 1 µM	–	< 0.01 µM	–	CCc1cc(NCCOC)c2ncc(CCc3cncc(-n4cc(-c5ccn(C)n5)c5c(N)ncnc54)c3)cc2n1
< 1 µM	–	–	–	CCc1cc(N2CCOCC2)c2ccc(OCc3cncc(-n4cc([C@H]5CCCO5)c5c(N)ncnc54)c3)cc2n1
< 1 µM	–	< 0.01 µM	–	CCc1cc(N2CCN(C)CC2)c2ccc(OCc3cncc(-n4ccc5c(N)ncnc54)c3)cc2n1
< 1 µM	–	< 0.01 µM	–	CCc1cc(NCCOC)c2c(F)cc(OCc3cncc(-n4cc(-c5ccn(C)n5)c5c(N)ncnc54)c3)cc2n1
< 1 µM	≥ 1 µM	< 0.01 µM	–	CCc1cc(NC)c2ccc(CCc3cncc(-n4cc(-c5ccn(C)n5)c5c(N)ncnc54)c3)cc2n1
< 1 µM	–	< 0.01 µM	–	CCNc1ccc2ccc(OCc3cncc(-n4cc([C@H]5CCCO5)c5c(N)ncnc54)c3)cc2n1
< 1 µM	–	–	–	CCc1cc(N(C)C)c2ccc(OCc3cncc(-n4ccc5c(N)ncnc54)c3)cc2n1
< 1 µM	–	< 0.01 µM	–	CCc1cc(NCCOC)c2c(F)cc(OCc3cncc(-n4cc(COC)c5c(N)ncnc54)c3)cc2n1
< 1 µM	–	< 0.01 µM	–	CCc1cc(N2CCOCC2)c2ccc(OCc3cncc(-n4cc([C@@H]5CCCO5)c5c(N)ncnc54)c3)cc2n1
< 1 µM	–	< 0.01 µM	–	CCc1cc(N(C)C2CC2)c2ccc(OCc3cncc(-n4cc([C@@H]5CCCO5)c5c(N)ncnc54)c3)cc2n1
< 1 µM	–	< 0.01 µM	–	CCc1cc(N2CCOCC2)c2ncc(OCc3cncc(-n4cc(-c5ccn(C)n5)c5c(N)ncnc54)c3)cc2n1
< 1 µM	–	< 0.01 µM	–	Cn1ccc(-c2cn(-c3cncc(COc4ccc5ccc(N6CC(N)C6)nc5c4)c3)c3ncnc(N)c23)n1
< 1 µM	–	< 0.01 µM	–	CCCc1cc(N)c2ccc(CCc3cncc(-n4cc(-c5ccn(C)n5)c5c(N)ncnc54)c3)cc2n1
< 1 µM	–	< 0.01 µM	–	Nc1ncnc2c1c([C@H]1CCCO1)cn2-c1cncc(COc2ccc3ccc(N4CCC4)nc3c2)c1
